Details: human, in vivo, 6 months

## CC/C=C\C/C=C\C/C=C\C/C=C\C/C=C\CCCC(=O)OCC [AMR101, all-cis eicosa-5,8,11,14,17-pentaenoic acid ethyl ester]
  red blood cell content of 20:5n3 (EPA), mean: 3.07%
